The structures appear in SMILES notation. Whole data set: some 110,000 compounds, median “z-score” near -0.1, cut for the highest 2% near 2. This is one part of the list. The source made the active and inactive calls.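 Rule for the calls: active = z-score in the third read window above 3 or below -3; inactive = the rest.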

The target in the assay is Metabotropic glutamate receptor 8 (Rattus norvegicus) (UniProt P70579). The assay is described as follows: rat mGluR8 modulators via GIRK flux, primary screen, cell-based, thallium flux, HTS (AID 488969). As to conditions: HEK293 rat mGluR8, GIRK (G protein-gated inwardly rectifying potassium channel) thallium flux, FluoZin2; at 10 µM; stronger effect = higher value; submaximal glutamate (EC20) added with thallium.
Chain of UniProt P70579 (P70579 whole entry, looked up): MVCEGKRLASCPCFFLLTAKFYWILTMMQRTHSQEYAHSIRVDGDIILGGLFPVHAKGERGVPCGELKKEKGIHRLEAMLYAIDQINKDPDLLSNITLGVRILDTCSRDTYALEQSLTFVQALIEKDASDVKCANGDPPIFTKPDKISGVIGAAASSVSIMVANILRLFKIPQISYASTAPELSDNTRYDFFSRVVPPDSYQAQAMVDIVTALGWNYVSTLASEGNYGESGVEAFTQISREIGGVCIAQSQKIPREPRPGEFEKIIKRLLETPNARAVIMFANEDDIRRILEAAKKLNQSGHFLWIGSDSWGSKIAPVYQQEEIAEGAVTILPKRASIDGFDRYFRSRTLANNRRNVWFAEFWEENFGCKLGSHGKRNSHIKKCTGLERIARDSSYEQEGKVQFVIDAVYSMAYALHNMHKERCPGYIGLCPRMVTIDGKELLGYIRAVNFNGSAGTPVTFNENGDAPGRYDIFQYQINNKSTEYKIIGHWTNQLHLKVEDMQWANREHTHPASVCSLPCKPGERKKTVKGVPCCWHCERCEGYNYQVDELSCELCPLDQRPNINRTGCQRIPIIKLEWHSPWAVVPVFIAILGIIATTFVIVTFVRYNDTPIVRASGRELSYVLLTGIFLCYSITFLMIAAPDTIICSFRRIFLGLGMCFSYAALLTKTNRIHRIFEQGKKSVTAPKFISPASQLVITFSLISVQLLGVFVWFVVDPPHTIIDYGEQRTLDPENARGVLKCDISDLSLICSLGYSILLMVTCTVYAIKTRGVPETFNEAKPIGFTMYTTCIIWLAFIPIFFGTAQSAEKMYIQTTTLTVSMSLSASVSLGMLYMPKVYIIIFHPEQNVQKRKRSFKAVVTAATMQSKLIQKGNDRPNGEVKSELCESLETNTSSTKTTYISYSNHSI
The compound `C=CCNC(=O)c1c(N)n(-c2ccc3c(c2)OCO3)c2nc3ccccc3nc12` displayed a z-score of 0.4. To `CCCCCCn1c(N2CCN(c3ccccc3)CC2)nc2c1c(=O)n(C)c(=O)n2C` belongs -0.0111; to `COc1ccc(S(=O)(=O)N2CCCC(C(=O)N3CCCCCC3)C2)cc1` (configuration not stated), 0.166. To `Cc1scc(C(=O)NNC(=S)NCC2CCCO2)c1C` (configuration not stated) belongs 0.379.

For `CCOC(=O)c1c(C)[nH]c(C(=O)CN2C(=O)NC(C)(c3ccc4ccccc4c3)C2=O)c1C` (configuration not stated), the z-score was -0.218. The same measure for `O=C(Nc1scc(-c2ccc(F)cc2)c1C(=O)O)c1ccco1`: -1.41; for `COc1ccccc1CNC(=O)CCNC(=O)Cn1ccc2ccccc2c1=O`: 0.853; for `Cc1ccc(S(=O)(=O)Cc2ccc(C(=O)OCc3ccccc3)cc2)cc1`: -0.471.

Take `CCC(C)Cn1c(C(C)O)nc2ccccc21` (configuration not stated): the z-score is -0.0788. As to `COc1cnc(-c2ccccn2)nc1Oc1ccccc1Cl`, the z-score is -0.437. The same measure for `CN(C)C(=O)C1OC(C)(C)OC1C(=O)N(C)C` (configuration not stated): 0.649. With `CC1(C)Cc2c(sc3nc(-c4cc5ccccc5o4)n(N)c(=O)c23)CO1`, the z-score was -0.00131. To `COc1ccc(/C(O)=C/c2nc3ccc(C(=O)NCCc4cccc(C)c4)cc3[nH]c2=O)cc1OC` belongs -0.389; to `CC1CCCCN1CCNC(=O)C1CC(=O)N(c2ccc(F)c(Cl)c2)C1` (configuration not stated), -0.399; to `CCCCC(=O)Nc1sc2c(c1C(N)=O)CCC2`, -1.03.

In the case of `COC(=O)c1c(-c2cccnc2)csc1NC(=O)c1cc(C)on1`, the z-score is -1.32. To `O=C(c1ccc2nc(-c3ccco3)c(-c3ccco3)nc2c1)N1CCN(c2ncccn2)CC1` belongs -0.289; to `Nc1c(S(=O)(=O)c2ccccc2)c2nc3ccccc3nc2n1Cc1ccco1`, -0.688. The same measure for `CCOC(=O)Cc1csc2nc3sc(C)c(C)c3c(=O)n12`: -0.129. To `O=C(OCC#CCSc1nnc(-c2ccc([N+](=O)[O-])cc2)o1)c1cccs1` belongs 0.545. Regarding `Cc1sc(NC(=O)c2ccco2)c(CN2CCN(c3ccccc3)CC2)c1C`, the z-score was -0.213. The same measure for `CC(C)CC(=O)N1CCN(S(=O)(=O)c2ccc(F)cc2)CC1`: 0.488; for `c1cncc(CNC2CCCc3ccccc32)c1` (configuration not stated): -0.427. The same measure for `CCOC(=O)C1CCN(Cc2ccc(C(=O)OC)cc2)CC1`: 1.03. Compound `CC(=O)N/C(=N\OCc1ccccc1Cl)c1nonc1NC(C)=O` displayed a z-score of -0.0503. The compound `CCC(C)c1ccccc1NC(=O)COC(=O)c1ccc2[nH]c3c(c2c1)CCCC3` (configuration not stated) returned a z-score of -0.0793. In turn, `Cn1c(=O)c2c(-c3ccccc3)n(-c3ccccc3O)cc2n(C)c1=O` returned a z-score of -0.388. To `CCCCCCC(=O)Nc1c2c(nc3ccccc13)N(C)CC2` belongs -0.102; to `COc1cc(/C=c2\sc3nc(-c4ccncc4)nn3c2=O)ccc1OC(C)=O`, -0.777; to `Cc1c2c(nc3nc4ccccc4n13)CC(C)(C)CC2=O`, -0.428. To `COCCn1nnnc1CN(CCCN1CCOCC1)Cc1cc2c(C)ccc(C)c2[nH]c1=O` belongs 0.0213. To `CCOc1ccccc1OCCCCCc1c(C)n[nH]c1C` belongs active: 3.05; to `O=C(COc1ccc(Cl)cc1Cl)N1CCCC1`, -0.0258; to `Cc1ccc(NC(=O)CN2C(=O)CSC2=O)cc1`, -0.151. Regarding `CC(C)CNS(=O)(=O)c1ccc2c(c1)OCCO2`, the z-score is -0.266. The same measure for `N#CC1=C(SCC(=O)Nc2nccs2)NC(=O)CC1c1ccccc1` (configuration not stated): -0.5.

On to `CCCC(=O)Nc1ccc(S(=O)(=O)N2CCCC2)cc1`, for which the z-score was -0.314. The same measure for `CCOc1c(C(N)=O)c(-c2ccccc2)c2c(=O)[nH]c3ccccc3n12`: 0.243; for `O=C(Nc1cccc2ccccc12)C12CC3CC(C1)CC(n1cnc([N+](=O)[O-])n1)(C3)C2`: -0.118; for `CCOC(=O)c1c(NC(=O)COc2cccc3c2CCN(CC)C3=O)sc2c1CCC2`: -0.925.

In turn, `CCOC(=O)c1sc(NC(=O)Nc2ccc(Cl)cc2)cc1C` displayed a z-score of -0.165. Compound `Cn1ncc(Cl)c(Oc2ccc(C(C)(C)C)cc2)c1=O` displayed a z-score of 0.28. To `CNC(=O)c1cc(Nc2nnc(C)c3ccccc23)ccc1OC` belongs 0.937. The same measure for `Cc1ccc(-c2ncccc2OC(=O)C23CC4CC(CC(C4)C2)C3)cc1`: 0.0781; for `CC(C)n1c(C(O)c2ccccc2)nc2ccccc21` (configuration not stated): -0.297. The same measure for `Cc1cc(SCCOc2ccccc2)nc(N)n1`: 0.961; for `O=C(Nc1ccc(O)c(-c2nc3ccccc3s2)c1)c1cc(=O)c2ccccc2o1`: -0.229; for `Cc1ccc(NC(=O)C2=C(O)CCn3c2nc2ccccc23)cc1`: -0.0826. As to `O=C(Nc1cc(=O)[nH]c2ncnn12)c1ccccc1`, the z-score was -0.422. To `COC(=O)c1ccccc1NC(=S)N(Cc1ccc2c(c1)OCO2)Cc1cc2ccc(C)cc2[nH]c1=O` belongs 0.26. The same measure for `Cc1cc(C)n2nc(Nc3ccccc3)cc2n1`: 0.47; for `CC(C)(C)CC(C)(C)NC1=CC(=O)OC12CCCCC2`: -0.189; for `CCOC(=O)c1cc(C)n(CCCN2CCOCC2)c1C`: 0.369. For `CCOC(=O)c1ccc(N2C(=O)C3CC=C(C)CC3C2=O)cc1` (configuration not stated), the z-score was -0.795. To `COc1ccccc1-c1cc2nc(C)c(CCC(=O)NC(C)CCc3ccco3)c(C)n2n1` (configuration not stated) belongs -0.37; to `CSc1nc(-c2ccc(Cl)cc2)nn1C(=O)c1ccccc1`, -0.147; to `O=C(Nc1cccc(Cl)c1)C1=Cc2cc(Cl)ccc2OC1`, -0.313.

Compound `Cc1ccc(Oc2ncccc2/C=N/OCc2ccc(Cl)c(Cl)c2)cc1` returned a z-score of 0.00844. To `Cc1ccc(S(=O)(=O)N(CCC(=O)Nc2ccc(OC(F)(F)F)cc2)c2ccccc2)cc1` belongs -0.147. The same measure for `Cn1c(=O)c2c(nc(SCCN3CCOCC3)n2Cc2ccccc2Cl)n(C)c1=O`: -0.442; for `COC(=O)Cc1c(C)c2ccc(OCc3nn[nH]n3)c(C)c2oc1=O`: 0.2. To `O=C(CSCc1ccc(Cl)cc1Cl)Nc1c[nH]c(=O)[nH]c1=O` belongs -0.284. For the compound `COc1ccc(C(=O)N2CCN(Cc3cc(OC)c(O)c(OC)c3)CC2)cc1OC`, the z-score was -0.421.

`CCNc1oc(COc2ccccc2F)nc1C#N` showed a z-score of 0.592. The same measure for `C=CCSc1nc(O)c(CC)c(=O)n1C(C)CC` (configuration not stated): 0.657; for `CCCCN(C(=O)CCC(=O)O)C1CC(=O)N(c2ccc(OCCC)cc2)C1=O` (configuration not stated): -0.292. The same measure for `CC(C)(C)N(Cc1cc2ccccc2[nH]c1=O)C(=O)c1cccnc1`: 1.31; for `CC(N=C1NS(=O)(=O)c2ccccc21)C(=O)NCc1ccc2c(c1)OCO2` (configuration not stated): -0.102; for `COc1ccc(/C=N/NC(=O)CCSc2nc3ccccc3s2)cc1`: 1.6.

With `Cc1ccc(N(C(C)C(=O)O)S(=O)(=O)c2c(C)[nH]c(=O)[nH]c2=O)cc1` (configuration not stated), the z-score was found to be 0.294. The same measure for `c1ccc(-c2noc(-c3ccc4ccccc4c3)n2)cc1`: -0.296; for `COc1cccc(NS(=O)(=O)c2ccc3[nH]cc(C(=O)N(C)Cc4ccco4)c(=O)c3c2)c1`: -0.064; for `Cn1cc(Br)c(C(=O)Nc2sc3c(c2C(N)=O)CCC3)n1`: -0.0793. Turning to `O=C(COc1ccc(Cl)cc1)Nc1ccc(Cl)cn1`, the z-score was 0.0102. In the case of `N#CCCCCN1c2cccc3cccc(c23)S1(=O)=O`, the z-score worked out at 0.762.

With `O=C(NCc1nnc(SCc2ccc(F)cc2)n1-c1ccc(F)cc1)C12CC3CC(CC(C3)C1)C2`, the z-score was -0.0115. To `CCOc1ccc(S(=O)(=O)Nc2nc3ccc(OC)cc3s2)cc1` belongs -0.352; to `O=C(c1ccc2ccccc2n1)N1CCN(c2ccccc2)CC1`, 0.353; to `O=C(CSc1nnc(SCc2ccccc2)s1)N/N=C/C=C\c1ccco1`, -0.33. Regarding `O=c1c2ccccc2n2c(-c3cccc(F)c3)nnc2n1Cc1ccccc1`, the z-score was -0.25. To `CCCn1c2ccccc2c2nnc(SCC(=O)Nc3c(C)n(C)n(-c4ccccc4)c3=O)nc21` belongs 0.182; to `Cc1cccc(CCNc2nc3ccccc3n3nnnc23)c1`, 0.0311. The same measure for `COc1cc(NC(=O)CN2CCC(Cc3ccccc3)CC2)c(C)cc1[N+](=O)[O-]`: -0.206; for `COC(=O)C1=C(C)NC2=C(C(=O)c3ccccc32)C1c1ccc(-c2ccc(C(=O)O)cc2)o1` (configuration not stated): -1.5. Regarding `Nc1c(C(=O)Nc2ccccc2F)sc2nc(Cc3ccccc3)cc(C(F)(F)F)c12`, the z-score is -0.288. The same measure for `CC(C)OCCCNc1ncnc2c1cnn2-c1ccccc1`: -0.291; for `COc1cc(C)ccc1N(CCCN1C(=O)c2cccc3cccc(c23)C1=O)C(=O)c1cccs1`: 0.509; for `O=C(NCc1n[nH]c(=S)n1-c1ccc(F)cc1)c1ccc(S(=O)(=O)N2CCCC2)cc1`: 0.261.

With `CC(C)(C)NC(=O)C(c1ccncc1)N(C(=O)c1csnn1)C1CC1` (configuration not stated), the z-score was -0.195. The same measure for `Cc1c(NC(=O)CSc2nnc(-c3ccco3)n2-c2ccccc2)c(=O)n(-c2ccccc2)n1C`: -0.287; for `CCOC(=O)c1ccc(NC(=S)Nc2ccccc2)cc1`: 1.7; for `O=C(COc1ccc([N+](=O)[O-])cc1)N/N=C/c1cc([N+](=O)[O-])ccc1N1CCOCC1`: 0.208. Regarding `O=C1N=C(N2CCOCC2)S/C1=C\c1ccc(-c2ccccc2Cl)o1`, the z-score was -0.0639. As to `COCCN1C(=O)C(=O)/C(=C(/O)c2cccc(S(=O)(=O)N(C)C)c2)C12C(=O)N(C)c1ccccc12` (configuration not stated), the z-score was -0.343. Turning to `Cc1ccc(CNC(=O)CCCOc2cc(=O)n(C)c3ccccc23)o1`, the z-score was -0.129. The same measure for `CCOc1cc2[nH]c(=O)n(CCC(=O)NCc3ccc(OC)cc3)c(=O)c2cc1OCC`: -0.0556; for `Cc1cccc(N2C(=O)SC(N(CC(=O)O)c3cccc(C)c3)C2=O)c1` (configuration not stated): -0.564; for `Cc1ccc(C(=O)OCC(=O)Nc2ncc(Cl)cc2Cl)cc1NC(=O)c1ccco1`: -0.0349. To `CC(Sc1ncnc2ccccc12)C(=O)Nc1ccc2c(c1)OCCO2` (configuration not stated) belongs -0.25. To `CC1CCCC/C1=N\NS(=O)(=O)c1ccc(Br)cc1` (configuration not stated) belongs 0.101. As to `CNC(=S)NNC(=O)COc1ccc(C)c(C)c1`, the z-score is -0.056. As to `CCOC12CC(C)(C)CC(C)(CC3=C1C(=O)CC(C)(C)C3)C2` (configuration not stated), the z-score worked out at 2.32. To `O=C(COC(=O)c1cc(S(=O)(=O)N2CCOCC2)cs1)c1ccccc1` belongs 0.0581; to `CCOc1c2ccc(C(=O)NCc3cc(C(F)(F)F)cc(C(F)(F)F)c3)cc2nn1CCOC`, -0.219; to `CCn1c(=O)n(CC(=O)Nc2cc(OC)ccc2OC)c(=O)c2ccccc21`, -0.247. The same measure for `CC(=O)Nc1ccc(S(=O)(=O)Nc2nc3n(n2)C(c2ccccc2)CC(=O)N3)cc1` (configuration not stated): -0.375; for `O=C(Nc1ccccc1C(=O)N1CCOCC1)c1cccnc1`: -0.172.
